This assay has as its target T1, full-length human GITR (cell surface expression) (human, UniProt Q9Y5U5 26-241).
T1 construct: whole, on cells; also called hGITR
T1 sequence (looked up): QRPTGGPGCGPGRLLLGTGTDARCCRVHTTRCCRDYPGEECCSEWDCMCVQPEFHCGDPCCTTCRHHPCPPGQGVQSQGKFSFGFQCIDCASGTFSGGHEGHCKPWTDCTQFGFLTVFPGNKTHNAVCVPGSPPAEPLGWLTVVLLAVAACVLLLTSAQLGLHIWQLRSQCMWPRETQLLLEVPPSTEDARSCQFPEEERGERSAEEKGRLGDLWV
Kind of assay: flow cytometry dose series (2-fold dilutions) on HEK293 cells transiently co-transfected with human GITR and GFP; PE-conjugated anti-Fc secondary antibody. As to the method:
FIG. 5. Dose response of binding of murine GITRL trimer and human GITRL trimer fusion polypeptides to GITR. Shown is a flow cytometry binding analysis of single chain murine GITRL trimer with murine IgG2a Fc domain and single chain human GITRL trimer with human IgG1 Fc domain. HEK293 cells were transiently transfected with an expression vector encoding either human or murine GITR and GFP. Transfected cells were incubated with the indicated fusion protein and analyzed by flow cytometry. Positive binding is determined by observation of cells within the inset box of the FACS plot.
A comparison of a single chain mGITRL trimer-Fc (336B10) and a single chain hGITRL trimer-Fe (336B11) to bind mouse GITR and human GITR, respectively, was undertaken. Human HEK-293 cells were transiently co-transfected with expression vectors encoding (1) a full-length mouse or human GITR (cell surface expression) and (2) GFP as a transfection marker. […] The cells were stained with a PE-conjugated anti-human or anti-mouse Fc secondary antibody and analyzed by flow cytometry.
A general note: Flow cytometry measures light scatter and fluorescence of single cells or particles in a stream.

B1: 336B11, human single chain GITRL trimer-Fc (IgG1) (Fc fusion)
chain: LQLETAKEPCMAKFGPLPSKWQMASSEPPCVNKVSDWKLEILQNGLYLIYGQVAPNANYNDVAPFEVRLYKNKDMIQTLTNKSKIQNVGGTYELHVGDTIDLIFNSEHQVLKNNTYWGIILLANPQFISLQLETAKEPCMAKFGPLPSKWQMASSEPPCVNKVSDWKLEILQNGLYLIYGQVAPNANYNDVAPFEVRLYKNKDMIQTLTNKSKIQNVGGTYELHVGDTIDLIFNSEHQVLKNNTYWGIILLANPQFISLQLETAKEPCMAKFGPLPSKWQMASSEPPCVNKVSDWKLEILQNGLYLIYGQVAPNANYNDVAPFEVRLYKNKDMIQTLTNKSKIQNVGGTYELHVGDTIDLIFNSEHQVLKNNTYWGIILLANPQFIS[human IgG1 Fc not listed]
notes: also called OMP-336B11; hGITRL trimer-Fc 336B11
With B1, the binding result is given as “binds”.

The record behind these values is patent US20160256527A1 (ONCOMED PHARMACEUTICALS, published 2016).
